# Test results as given in the supplement of paper PMC9174493.
# Some of the results follow. Single values of this set are uncertain. Values with irradiation are relative to irradiated vehicle.
# Legend:
# [1] = test system: A549-Dual; assay: NF-kB reporter (SEAP) activity, viability-corrected, relative to vehicle (fold change vs vehicle); higher = more activation of STING-IRF / NF-kB immune response reporter; conditions: 10 µM
# [2] = test system: A549-Dual; assay: ISRE reporter (Lucia luciferase) activity, viability-corrected, relative to vehicle (fold change vs vehicle); higher = more activation of STING-IRF / NF-kB immune response reporter; conditions: 10 µM
# 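For NF-kB reporter (SEAP) activity, viability-corrected, relative to vehicle in this document: viability correction based on the alamar blue assay, with concentrations leaving 10% survival or less dropped.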
Structure (SMILES),NF-kB reporter ([1]; irradiation: 8 Gy/4 fr),NF-kB reporter ([1]; irradiation: none),ISRE reporter ([2]; irradiation: 8 Gy/4 fr),ISRE reporter ([2]; irradiation: none)
Cc1nnc(C(=O)NC(C)(C)c2nc(C(=O)NCc3ccc(F)cc3)c([O-])c(=O)n2C)o1.[K+] [Raltegravir potassium],0.601,0.86,0.549,0.677
CCOc1nc2cccc(C(=O)O)c2n1Cc1ccc(-c2ccccc2-c2nn[nH]n2)cc1 [Candesartan],0.704,0.824,0.666,0.638
CCCCCC(O)/C=C/C1C(O)CC(=O)C1C/C=C\CCCC(=O)O (centres undefined) [Prostaglandin E2 (PGE2)],0.794,0.927,0.687,0.735
NC(=O)c1cc[n+](CC2=C(C(=O)[O-])N3C(=O)C(NC(=O)C(c4ccccc4)S(=O)(=O)[O-])C3SC2)cc1.[Na+] (centres undefined) [Cefsulodin sodium],0.823,0.905,0.801,0.734
NCCCCC(NC(=O)C1CCCN1C(=O)C1CSSCC(NC(=O)CNC(=O)CNC(=O)CN)C(=O)NC(Cc2ccc(O)cc2)C(=O)NC(Cc2ccccc2)C(=O)NC(CCC(N)=O)C(=O)NC(CC(N)=O)C(=O)N1)C(=O)NCC(N)=O (centres undefined) [Terlipressin Acetate],1.06,1.77,0.788,1.32
Nc1c(Br)cc(Br)cc1CNC1CCC(O)CC1 (centres undefined) [Ambroxol],0.877,0.614,0.963,0.509
CC(C)(C)C1CCC(CC2=C(O)C(=O)c3ccccc3C2=O)CC1 (centres undefined) [Buparvaquone],1.9,2.43,0.208,0.682
COC1CC2CCC(C)C(O)(O2)C(=O)C(=O)N2CCCCC2C(=O)OC(C(C)CC2CCC(n3cnnn3)C(OC)C2)CC(=O)C(C)/C=C(\C)C(O)C(OC)C(=O)C(C)CC(C)/C=C/C=C/C=C/1C (centres undefined) [Zotarolimus(ABT-578)],1.27,1.48,0.543,1.09
CN(Cc1cc(Br)cc(Br)c1N)C1CCCCC1.Cl [Bromhexine HCl],0.83,1.25,0.912,0.911
C=CCc1ccc(O)c(OC)c1 [Eugenol],0.936,1.02,0.971,0.936
COc1ccc(C(Cl)=C(c2ccc(OC)cc2)c2ccc(OC)cc2)cc1 [Chlorotrianisene],0.719,0.892,0.72,0.898
CCC(=O)NCC1CC1c1cccc2c1CCO2 (centres undefined) [Tasimelteon],0.755,1.26,0.687,0.729
CCOC(=O)C(CCc1ccccc1)NC(C)C(=O)N1C(=O)N(C)CC1C(=O)O.Cl (centres undefined) [Imidapril HCl],0.698,1,0.647,0.756
Cc1ncc([N+](=O)[O-])n1CCO [Metronidazole],0.648,0.863,0.684,0.723
CC1=C(/C=C/C(C)=C/C=C/C(C)=C\C(=O)O)C(C)(C)CCC1 [Isotretinoin],0.83,0.841,0.7,0.775
O=C1OC(C(O)CO)C(O)C1O.[NaH] (centres undefined) [Sodium ascorbate],0.733,1.04,0.793,0.778
COc1ccnc(CS(=O)c2nc3cc(OC(F)F)ccc3[n-]2)c1OC.[Na+] (centres undefined) [Pantoprazole sodium],0.749,0.45,0.582,0.508
C=CC1CC1(NC(=O)C1CC2CN1C(=O)C(C(C)(C)C)NC(=O)OC1CC1CCCCCc1nc3ccc(OC)cc3nc1O2)C(=O)NS(=O)(=O)C1CC1 (centres undefined) [Grazoprevir],0.937,1.26,1.21,3.79
Cc1onc(-c2c(F)cccc2Cl)c1C(=O)NC1C(=O)N2C1SC(C)(C)C2C(=O)[O-].[Na+] (centres undefined) [Flucloxacillin sodium],0.802,0.788,0.778,0.672
CC(=O)O.CCC(C)C1NC(=O)C(Cc2ccc(O)cc2)NC(=O)C(N)CSSCC(C(=O)N2CCCC2C(=O)NC(CC(C)C)C(=O)NCC(N)=O)NC(=O)C(CC(N)=O)NC(=O)C(CCC(N)=O)NC1=O (centres undefined) [Oxytocin (Syntocinon)],0.866,0.653,0.863,0.606
CCCCOc1cc(C(=O)OCCN(CC)CC)ccc1N.Cl [Oxybuprocaine HCl],0.694,1.37,0.752,0.866
CC1(C)C(C(=O)[O-])N2C(=O)CC2S1(=O)=O.[Na+] (centres undefined) [Sulbactam sodium],0.753,1.08,0.691,0.833
Cc1ccnc2c1NC(=O)c1cccnc1N2C1CC1 [Nevirapine],0.571,0.912,0.686,0.832
C=CCOc1ccccc1OCC(O)CNC(C)C.Cl (centres undefined) [Oxprenolol HCl],0.972,0.93,0.931,0.952
CC1(C)SC2C(NC(=O)C(N)c3ccc(O)cc3)C(=O)N2C1C(=O)O.O.O.O (centres undefined) [Amoxicillin trihydrate],0.952,0.873,0.727,0.574
OCC1OC(OCC2OC(OC3(CO)OC(CO)C(O)C3O)C(O)C(O)C2O)C(O)C(O)C1O (centres undefined) [Raffinose],0.766,0.478,0.764,0.489
CC(=O)Nc1ccc(C(=O)O)cc1.CC(=O)Nc1ccc(C(=O)O)cc1.CC(=O)Nc1ccc(C(=O)O)cc1.CC(O)CN(C)C.CC(O)CN(C)C.CC(O)CN(C)C.O=c1[nH]cnc2c1ncn2C1OC(CO)C(O)C1O (centres undefined) [Isoprinosine],0.812,1.07,0.678,0.966

Structure (SMILES),NF-kB reporter ([1]; irradiation: 8 Gy/4 fr),NF-kB reporter ([1]; irradiation: none),ISRE reporter ([2]; irradiation: 8 Gy/4 fr),ISRE reporter ([2]; irradiation: none)
CSc1nc2cc(Oc3cccc(Cl)c3Cl)c(Cl)cc2[nH]1 [Triclabendazole],0.654,0.79,0.676,1.08
CC(C)NCC(O)COc1ccc(CCOCC2CC2)cc1 (centres undefined) [Betaxolol],0.654,0.882,0.763,0.938
COc1cc(C(C)=O)ccc1OCCCN1CCC(c2noc3cc(F)ccc23)CC1 [Iloperidone],0.63,0.767,0.819,1.01
O=C(O)c1ccc2nc(-c3cc(Cl)cc(Cl)c3)oc2c1 [Tafamidis],0.614,1.01,0.581,0.693
CCCCN(CCCC)CC(O)c1cc(Cl)cc2c1-c1ccc(Cl)cc1/C2=C/c1ccc(Cl)cc1 (centres undefined) [Lumefantrine],0.678,1.05,0.555,0.846
CC1NCc2cc(-c3ccc4c(=O)c(C(=O)O)cn(C5CC5)c4c3OC(F)F)ccc21 (centres undefined) [Garenoxacin],1.03,0.91,0.761,0.897
CCN1C(=O)C=CC1=O [N-Ethylmaleimide (NEM)],0.971,1.04,0.771,0.581
CCCNC1CCc2nc(N)sc2C1 (centres undefined) [Pramipexole],0.803,1.14,0.621,0.706
Nc1ccc(S(=O)(=O)[N]([Na])c2cnc3ccccc3n2)cc1 [Sulfaquinoxaline sodium],0.964,1.18,1.02,1.34
CC(=O)c1ccc(S(=O)(=O)NC(=O)NC2CCCCC2)cc1 [Acetohexamide],1.06,0.735,0.916,0.63
O=C(O)c1cc(=O)c2ccccc2o1 [Chromocarb],1.4,0.737,1.38,0.78
NS(=O)(=O)c1cc2c(cc1C(F)(F)F)NC(Cc1ccccc1)NS2(=O)=O (centres undefined) [Bendroflumethiazide],0.957,1.11,0.151,0.354
CC(O)C1C(=O)N2C(C(=O)[O-])=C(SC3CNC(C(=O)Nc4cccc(C(=O)O)c4)C3)C(C)C12.[Na+] (centres undefined) [Ertapenem sodium],0.777,0.888,0.769,0.694
O=P(O)(O)OC1C(OP(=O)(O)O)C(OP(=O)(O)O)C(OP(=O)(O)O)C(OP(=O)(O)O)C1OP(=O)(O)O (centres undefined) [Sodium phytate hydrate],0.789,0.892,0.773,0.712
CC[N+](C)(C)c1cccc(O)c1.[Cl-] [Edrophonium chloride],0.781,0.951,0.68,0.731
COc1ccc(-c2nc3cc(C4=NNC(=O)CC4C)ccc3[nH]2)cc1 (centres undefined) [Pimobendan],2.72,7.1,2.35,8.62
C#CCNC1CCc2ccccc21.CS(=O)(=O)O (centres undefined) [Rasagiline Mesylate],0.717,1.01,0.724,0.757
O=C(O)c1ccc(O)c(O)c1 [Protocatechuic acid],0.766,0.621,0.703,0.538
CCN1CCN(C(=O)NC(C(=O)NC2C(=O)N3C(C(=O)O)=C(CSc4nnnn4C)CSC23)c2ccc(O)cc2)C(=O)C1=O (centres undefined) [Cefoperazone],0.638,0.822,0.762,0.764
Cc1cc(C(=O)NNCc2ccccc2)no1 [Isocarboxazid],0.588,0.972,0.534,0.596
CCCCCC(C)(O)/C=C/C1C(O)CC(O)C1C/C=C\CCCC(=O)O (centres undefined) [Carboprost],1.38,1,1.44,1.12
CN(C)C(=N)NC(=N)N.Cl [Metformin HCl],0.83,0.965,0.8,0.829
CC1OC(OC2C(Oc3cc(O)c4c(c3)OC(c3ccc(O)cc3)CC4=O)OC(CO)C(O)C2O)C(O)C(O)C1O (centres undefined) [Naringin],0.723,0.698,0.824,0.591
OB1OCc2cc(F)ccc21 [Tavaborole (AN-2690)],0.895,1.02,0.524,0.499
CCOC(=O)C1=C(C)NC(C)=C(C(=O)OC)C1c1cccc(Cl)c1Cl (centres undefined) [Felodipine],0.486,0.872,0.55,0.894
CS(=O)(=O)O.O=C(NC1CCN(CCCCC2(C(=O)NCC(F)(F)F)c3ccccc3-c3ccccc32)CC1)c1ccccc1-c1ccc(C(F)(F)F)cc1 [Lomitapide Mesylate],–,1.54,–,1.98
CCCCC(=O)OCC(=O)C1C(C)CC2C3CC(F)C4=CC(=O)C=CC4(C)C3(F)C(O)CC21C (centres undefined) [Diflucortolone valerate],0.399,0.505,0.0458,0.141
